Source: publication PMC7363125
These are yes or no findings as the source states them, for the method shown. In cells and extracts the contact can be indirect. Some binding calls cover weakened binding; strength is not graded here. Where a sequence is shown, tags or fusion partners need not be part of it.

T1: GST-PDZD11 full-length (residues 1-140), WT (human) (UniProt Q5EBL8)
T1 sequence: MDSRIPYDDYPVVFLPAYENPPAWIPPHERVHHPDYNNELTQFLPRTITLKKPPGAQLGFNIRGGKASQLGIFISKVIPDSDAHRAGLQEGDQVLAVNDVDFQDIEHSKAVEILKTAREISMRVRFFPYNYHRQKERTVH

T2: GST-Tetraspanin 33 C-terminal (residues 256-283) (UniProt Q86UF1)
T2 sequence: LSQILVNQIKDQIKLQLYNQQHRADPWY

T3: GST-Tetraspanin 33 C-terminal Δ2 (deletion of the last 2 residues, Trp-Tyr) (UniProt Q86UF1)
T3 sequence: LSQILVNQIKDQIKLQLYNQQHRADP

T4: GST-PLEKHA7 (human) WW2 domain (50-162) (human) (UniProt Q6IQ23)
T4 sequence: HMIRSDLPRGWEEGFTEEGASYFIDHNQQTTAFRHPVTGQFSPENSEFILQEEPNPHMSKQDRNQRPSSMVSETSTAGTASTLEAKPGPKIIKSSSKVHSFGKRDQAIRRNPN

T5: GST-PLEKHA7 (human) WW1 + WW2 domain (1-162), WT (human) (UniProt Q6IQ23)
T5 sequence: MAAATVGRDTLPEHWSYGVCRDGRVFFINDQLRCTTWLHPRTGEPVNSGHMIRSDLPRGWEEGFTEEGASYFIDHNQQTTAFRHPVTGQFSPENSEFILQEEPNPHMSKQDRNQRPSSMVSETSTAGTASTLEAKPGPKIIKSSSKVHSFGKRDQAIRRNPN

T6: GST-PLEKHA7 (human) WW1 domain (residues 1-56), WT (human) (UniProt Q6IQ23)
T6 sequence: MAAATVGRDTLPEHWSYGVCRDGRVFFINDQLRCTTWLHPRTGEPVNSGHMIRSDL


Key:
[1] = target: T1, GST-PDZD11 full-length (residues 1-140), WT (human); assay: pull-down; bait and prey switched: GST-PDZD11 as bait on GSH-Sepharose beads, WT or mutant WW1 + WW2 domains of PLEKHA7 as preys in lysate (Fig. S2, G and H); only the target purified
[2] = target: T2, GST-Tetraspanin 33 C-terminal (residues 256-283); assay: pull-down; GST-Tspan33 C-terminal baits (E. coli) on GSH-Sepharose beads, PLEKHA7-WW(1 + 2)-Myc WT or mutant preys in lysate, no third protein; immunoblot; only the target purified
[3] = target: T3, GST-Tetraspanin 33 C-terminal Δ2 (deletion of the last 2 residues, Trp-Tyr); assay: as above
[4] = target: T4, GST-PLEKHA7 (human) WW2 domain (50-162) (human); assay: pull-down; GST-WW1, GST-WW2 and GST-WW1 + 2 of PLEKHA7 against the isolated WW2 domain or the WW1 + 2 domain (Fig. S4A); only the target purified
[5] = target: T5, GST-PLEKHA7 (human) WW1 + WW2 domain (1-162), WT (human); assay: as above
[6] = target: T6, GST-PLEKHA7 (human) WW1 domain (residues 1-56), WT (human); assay: as above
[7] = target: T2, GST-Tetraspanin 33 C-terminal (residues 256-283); assay: pull-down; tri-molecular pulldown: GST-Tspan33 C-terminal bait, WW1 + WW2 preys, with PDZD11-HA as third protein (CFP-HA as negative control); only the target purified

Row | binding [1] | binding [2] | binding [3] | binding [4] | binding [5] | binding [6] | binding [7] | Binder
1 | binds | binds | no binding | no binding | no binding | no binding | binds | PLEKHA7-WW(1 + 2)-Myc (residues 1-162), WT (domain or fragment, UniProt Q6IQ23 1-162) MAAATVGRDTLPEHWSYGVCRDGRVFFINDQLRCTTWLHPRTGEPVNSGHMIRSDLPRGWEEGFTEEGASYFIDHNQQTTAFRHPVTGQFSPENSEFILQEEPNPHMSKQDRNQRPSSMVSETSTAGTASTLEAKPGPKIIKSSSKVHSFGKRDQAIRRNPN
2 | no binding | no binding | – | – | – | – | – | PLEKHA7-WW(1 + 2)-Myc (residues 1-162) D30A+H75A (domain or fragment, UniProt Q6IQ23 1-162) MAAATVGRDTLPEHWSYGVCRDGRVFFINAQLRCTTWLHPRTGEPVNSGHMIRSDLPRGWEEGFTEEGASYFIDANQQTTAFRHPVTGQFSPENSEFILQEEPNPHMSKQDRNQRPSSMVSETSTAGTASTLEAKPGPKIIKSSSKVHSFGKRDQAIRRNPN
3 | no binding | no binding | – | – | – | – | – | PLEKHA7-WW(1 + 2)-Myc (residues 1-162) T35A+H75A (domain or fragment, UniProt Q6IQ23 1-162) MAAATVGRDTLPEHWSYGVCRDGRVFFINDQLRCATWLHPRTGEPVNSGHMIRSDLPRGWEEGFTEEGASYFIDANQQTTAFRHPVTGQFSPENSEFILQEEPNPHMSKQDRNQRPSSMVSETSTAGTASTLEAKPGPKIIKSSSKVHSFGKRDQAIRRNPN

The remaining lines, values behind:

Row | Binder | binding [1] | binding [2] | binding [3] | binding [4] | binding [5] | binding [6] | binding [7]
4 | PLEKHA7-WW(1 + 2)-Myc (residues 1-162) T35A (domain or fragment, UniProt Q6IQ23 1-162) MAAATVGRDTLPEHWSYGVCRDGRVFFINDQLRCATWLHPRTGEPVNSGHMIRSDLPRGWEEGFTEEGASYFIDHNQQTTAFRHPVTGQFSPENSEFILQEEPNPHMSKQDRNQRPSSMVSETSTAGTASTLEAKPGPKIIKSSSKVHSFGKRDQAIRRNPN | binds | no binding | – | – | – | – | –
5 | PLEKHA7-WW(1 + 2)-Myc (residues 1-162) H75A (domain or fragment, UniProt Q6IQ23 1-162) MAAATVGRDTLPEHWSYGVCRDGRVFFINDQLRCTTWLHPRTGEPVNSGHMIRSDLPRGWEEGFTEEGASYFIDANQQTTAFRHPVTGQFSPENSEFILQEEPNPHMSKQDRNQRPSSMVSETSTAGTASTLEAKPGPKIIKSSSKVHSFGKRDQAIRRNPN | binds | no binding | – | – | – | – | –
6 | PLEKHA7-WW(1 + 2)-Myc (residues 1-162) D30A (domain or fragment, UniProt Q6IQ23 1-162) MAAATVGRDTLPEHWSYGVCRDGRVFFINAQLRCTTWLHPRTGEPVNSGHMIRSDLPRGWEEGFTEEGASYFIDHNQQTTAFRHPVTGQFSPENSEFILQEEPNPHMSKQDRNQRPSSMVSETSTAGTASTLEAKPGPKIIKSSSKVHSFGKRDQAIRRNPN | binds | no binding | – | – | – | – | –
7 | PLEKHA7-WW(2)-Myc (residues 50-162) (domain or fragment, UniProt Q6IQ23 50-162) HMIRSDLPRGWEEGFTEEGASYFIDHNQQTTAFRHPVTGQFSPENSEFILQEEPNPHMSKQDRNQRPSSMVSETSTAGTASTLEAKPGPKIIKSSSKVHSFGKRDQAIRRNPN | – | – | – | no binding | no binding | no binding | –
